# Measurements from the supplement of paper PMC8728848.
# This is one part of the list.
# B1: Gal 4 (Mus musculus), P56470 (protein)
# chain: MAYVPAPGYQPTYNPTLPYYQPIPGGLNVGMSVYIQGVASEHMKRFFVNFVVGQDPGSDVAFHFNPRFDGWDKVVFNTLQGGKWGSEERKRSMPFKKGAAFELVFIVLAEHYKVVVNGNPFYEYGHRLPLQMVTHLQVDGDLQLQSINFIGGQPLRPQGPPMMPPYPGPGHCHQQLNSLPTMEGPPTFNPPVPYFGRLQGGLTARRTIIIKGYVPPTGKSFAINFKVGSSGDIALHINPRMGNGTVVRNSLLNGSWGSEEKKITHNPFGPGQFFDLSIRCGLDRFKVYANGQHLFDFAHRLSAFQRVDTLEIQGDVTLSYVQI
# What was measured:
# Assay in all cases: glycan array binding signal (z-score within array); higher = stronger binding
# Conditions in all cases: glycan notation: IUPAC condensed, linker removed
# [1] = target: Fuc(a1-2)Gal
# In short: (§1)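 Glycan array data were curated from 3228 arrays in the Consortium for Functional Glycomics database and kept only where the protein sequence was available. Glycan names were converted to IUPAC-condensed notation, and columns mapping to the same glycan were averaged. The binding signal is a within-array Z-score, averaged across arrays of the same protein sequence at different concentrations or buffers and across linkers. Negative Z-scores can be read as non-binding.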
# [2] = target: Fuc(a1-2)Gal(b1-3)GalNAc
# In short: as §1
# [3] = target: Fuc(a1-2)Gal(b1-3)GalNAc(a1-3)[Fuc(a1-2)]Gal(b1-4)Glc
# In short: as §1
# [4] = target: Fuc(a1-2)Gal(b1-3)GalNAc(a1-3)[Fuc(a1-2)]Gal(b1-4)GlcNAc
# In short: as §1
# [5] = target: Fuc(a1-2)Gal(b1-3)GalNAc(b1-3)Gal
# In short: as §1
# [6] = target: Fuc(a1-2)Gal(b1-3)GalNAc(b1-3)Gal(a1-4)Gal(b1-4)Glc
# In short: as §1
# [7] = target: Fuc(a1-2)Gal(b1-3)GalNAc(b1-4)[Neu5Ac(a2-3)]Gal(b1-4)Glc
# In short: as §1
# [8] = target: Fuc(a1-2)Gal(b1-3)GlcNAc
# In short: as §1
# [9] = target: Fuc(a1-2)Gal(b1-3)GlcNAc(b1-2)Man(a1-3)[Fuc(a1-2)Gal(b1-3)GlcNAc(b1-2)Man(a1-6)]Man(b1-4)GlcNAc(b1-4)GlcNAc
# In short: as §1
# [10] = target: Fuc(a1-2)Gal(b1-3)GlcNAc(b1-2)Man(a1-3)[Fuc(a1-2)Gal(b1-3)GlcNAc(b1-2)Man(a1-6)]Man(b1-4)GlcNAc(b1-4)[Fuc(a1-6)]GlcNAc
# In short: as §1
# [11] = target: Fuc(a1-2)Gal(b1-3)GlcNAc(b1-3)Gal(b1-4)Glc
# In short: as §1
# [12] = target: Fuc(a1-2)Gal(b1-3)GlcNAc(b1-3)GalNAc
# In short: as §1
# [13] = target: Fuc(a1-2)Gal(b1-3)GlcNAc(b1-3)[Fuc(a1-2)Gal(b1-3)GlcNAc(b1-6)]GalNAc
# In short: as §1
# [14] = target: Fuc(a1-2)Gal(b1-3)GlcNAc(b1-3)[Fuc(a1-3)[Gal(b1-4)]GlcNAc(b1-6)]Gal(b1-4)Glc
# In short: as §1
# [15] = target: Fuc(a1-2)Gal(b1-3)GlcNAc(b1-3)[Gal(b1-4)GlcNAc(b1-6)]Gal(b1-4)Glc
# In short: as §1
# [16] = target: Fuc(a1-2)Gal(b1-3)GlcNAc(b1-3)[Neu5Ac(a2-6)Gal(b1-4)GlcNAc(b1-6)]Gal(b1-4)Glc
# In short: as §1
# [17] = target: Fuc(a1-2)Gal(b1-3)GlcNAc6S
# In short: as §1
# [18] = target: Fuc(a1-2)Gal(b1-3)[Fuc(a1-4)]GlcNAc
# In short: as §1
# [19] = target: Fuc(a1-2)Gal(b1-3)[Fuc(a1-4)]GlcNAc(b1-2)Man(a1-3)[Fuc(a1-2)Gal(b1-3)[Fuc(a1-4)]GlcNAc(b1-2)Man(a1-3)]Man(b1-4)GlcNAc(b1-4)GlcNAc
# In short: as §1
# [20] = target: Fuc(a1-2)Gal(b1-3)[Fuc(a1-4)]GlcNAc(b1-2)Man(a1-3)[Fuc(a1-2)Gal(b1-3)[Fuc(a1-4)]GlcNAc(b1-2)Man(a1-6)]Man(b1-4)GlcNAc(b1-4)GlcNAc
# In short: as §1
# [21] = target: Fuc(a1-2)Gal(b1-3)[Fuc(a1-4)]GlcNAc(b1-2)Man(a1-3)[Fuc(a1-2)Gal(b1-3)[Fuc(a1-4)]GlcNAc(b1-2)Man(a1-6)]Man(b1-4)GlcNAc(b1-4)[Fuc(a1-6)]GlcNAc(b1-4)[Fuc(a1-6)]GlcNAc
# In short: as §1
# [22] = target: Fuc(a1-2)Gal(b1-3)[Fuc(a1-4)]GlcNAc(b1-3)[Fuc(a1-3)[Gal(b1-4)]GlcNAc(b1-6)]Gal(b1-4)Glc
# In short: as §1
# [23] = target: Fuc(a1-2)Gal(b1-3)[Fuc(a1-4)]GlcNAc(b1-3)[Gal(b1-4)GlcNAc(b1-6)]Gal(b1-4)Glc
# In short: as §1
# [24] = target: Fuc(a1-2)Gal(b1-4)Fuc(a1-3)]GlcNAc(b1-2)Man(a1-3)[Fuc(a1-2)Gal(b1-4)[Fuc(a1-3)]GlcNAc(b1-2)Man(a1-6)]Man(b1-4)GlcNAc(b1-4)GlcNAc
# In short: as §1
# [25] = target: Fuc(a1-2)Gal(b1-4)Glc
# In short: as §1
# [26] = target: Fuc(a1-2)Gal(b1-4)Glc6S
# In short: as §1
# [27] = target: Fuc(a1-2)Gal(b1-4)GlcNAc
# In short: as §1
# [28] = target: Fuc(a1-2)Gal(b1-4)GlcNAc(b1-2)Man
# In short: as §1
# [29] = target: Fuc(a1-2)Gal(b1-4)GlcNAc(b1-2)Man(a1-3)[Fuc(a1-2)Gal(b1-4)GlcNAc(b1-2)Man(a1-6)]Man(b1-4)GlcNAc(b1-4)GlcNAc
# In short: as §1
# [30] = target: Fuc(a1-2)Gal(b1-4)GlcNAc(b1-2)Man(a1-3)[Fuc(a1-2)Gal(b1-4)GlcNAc(b1-2)Man(a1-6)]Man(b1-4)GlcNAc(b1-4)[Fuc(a1-6)]GlcNAc
# In short: as §1
binder,measurement,setting,value
B1,glycan array binding signal (z-score),[1],-0.214
same,glycan array binding signal (z-score),[2],-0.221
same,glycan array binding signal (z-score),[3],2.12
same,glycan array binding signal (z-score),[4],3.62
same,glycan array binding signal (z-score),[5],-0.235
same,glycan array binding signal (z-score),[6],-0.231
same,glycan array binding signal (z-score),[7],-0.226
same,glycan array binding signal (z-score),[8],-0.185
same,glycan array binding signal (z-score),[9],-0.167
same,glycan array binding signal (z-score),[10],-0.224
same,glycan array binding signal (z-score),[11],0.659
same,glycan array binding signal (z-score),[12],-0.188
same,glycan array binding signal (z-score),[13],-0.299
same,glycan array binding signal (z-score),[14],-0.175
same,glycan array binding signal (z-score),[15],-0.089
same,glycan array binding signal (z-score),[16],-0.276
same,glycan array binding signal (z-score),[17],4.25
same,glycan array binding signal (z-score),[18],-0.235
same,glycan array binding signal (z-score),[19],-0.287
same,glycan array binding signal (z-score),[20],-0.168
same,glycan array binding signal (z-score),[21],-0.312
same,glycan array binding signal (z-score),[22],-0.212
same,glycan array binding signal (z-score),[23],-0.193
same,glycan array binding signal (z-score),[24],-0.243
same,glycan array binding signal (z-score),[25],-0.196
same,glycan array binding signal (z-score),[26],0.723
same,glycan array binding signal (z-score),[27],-0.232
same,glycan array binding signal (z-score),[28],-0.328
same,glycan array binding signal (z-score),[29],-0.128
same,glycan array binding signal (z-score),[30],-0.243
